Measurements as given in the supplement of paper PMC11417369.
± gives the standard deviation of the averaged measurements. The list shows a part of the results.

System: PfAP2-I AP2 domain 3 (GST-tagged)
Assay: gcPBM binding intensity (ln(normalized median fluorescence intensity)); higher = stronger DNA binding
How it was run: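 Binding intensity values are the highest Masliner-normalised natural-log median intensity among replicate spots of either probe orientation. The binding step lasted 1 h in 1× PBS with 1% milk, 0.2 mg/ml BSA, 0.5% salmon testes DNA and 0.03% Triton X-100, using GST-tagged P. falciparum DNA-binding domains expressed in E. coli on an Agilent 4 × 180k array of primer-extended double-stranded 36-bp intergenic genomic probes plus negative controls. Alexa488 anti-GST antibody and a 488 nm scan detected bound protein.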

Row | Sequence | gcPBM binding intensity (ln)
1 | TATATATATATATATAGTACATATTAATTAATTTAT [XGTACX_site8198] | 9.31 ± 0.3
2 | ACACATACTAAAATGTTGTGAAATATGATAATGTGA [CACACA_negctrl_site851] | 7.61 ± 0.58
3 | TTATAATAATAGAACTTTATGTAGAAAAAAGGAAAA [XGTACX_negctrl_site116] | 7.54 ± 0.56
4 | AACAGCATTATTTCTTATTTTTTTTTTGATATATTT [GTGCAC_negctrl_site114] | 7.58 ± 0.73
5 | ATATCTATAATAAATACACACATTTATATAGATAAA [CACACA_site7518] | 7.54 ± 0.52
6 | AAACTTGACAGACACACACACACATATATAAAAAAA [CACACA_site757] | 8.01 ± 0.38
7 | GTTATATTATTCATACGTACCTATATTTCTATTAAC [XGTACX_site3447] | 8.27 ± 0.59
8 | ATGTGTTGGGAAAAGGCATGCACTTTTTTTTTTTTT [TGCATGCA_site707] | 8.49 ± 0.77
9 | TTTTCCTTATATTATGCATGCAGGGTTTGACATTAT [TGCATGCA_site826] | 8.32 ± 0.8
10 | TGATAACCTCACAAATGTACGTACGGGGCTAGCATT [XGTACX_site4157] | 8.01 ± 0.81
11 | AAAAAAAAAAAATAGACACACATATTATATATATAT [CACACA_site1419] | 9.18 ± 0.24
12 | TATTATTCTATACATTGTACATATTTTATAGTATGT [XGTACX_site73] | 7.72 ± 0.45
13 | TTTAAAACCTTACATACACACAAATATGTAAATATA [CACACA_site6464] | 7.54 ± 0.42
14 | AAAAAAAAAAAAAAAACACACATATAGGTATAAATA [CACACA_site7528] | 8.57 ± 0.46
15 | CACGCATATATACATACATGCATATATACATCCATG [TGCATGCA_site667] | 7.8 ± 0.65
16 | TTCATATAACCTTATAGTACATAATTAAAAATATAA [XGTACX_site6328] | 7.62 ± 0.28
17 | ATTTATACATGCTAATGTACTTATTTCACCTATATC [XGTACX_site3120] | 7.93 ± 0.61
18 | TATGGTATATACAACACACACACATATGTATAAATA [CACACA_site6562] | 8.02 ± 0.47
19 | TATATATATAATATTACACACATATATTTATATTTT [CACACA_site3460] | 8.49 ± 0.4
20 | CAAGTATTAATTATGTGTACATATATATATATATAT [XGTACX_site5311] | 9.36 ± 0.23
21 | TATGTATTTATCCACTTACATTTTTACTTTTCCATT [CACACA_negctrl_site1141] | 7.89 ± 0.54
22 | ATATATAGATAATCAAGTACATAACAAGATATAAGA [XGTACX_site2186] | 7.77 ± 0.68

Row | Sequence | gcPBM binding intensity (ln)
23 | TACTGATCTTTCTAGGTGCGCTGCTACCATTATCGT [GTGCAC_site9538] | 8.88 ± 0.16
24 | AAATGTGAAGTGAATACACACCTAATAAATATAACA [CACACA_site5727] | 7.58 ± 0.59
25 | ACATGAAATGTTTAAAGTACATATATAAATTTTTTT [XGTACX_site4519] | 7.47 ± 0.43
26 | TATATTTAATTATTATGTACTTATAATTTTTGAAAG [XGTACX_site8548] | 7.64 ± 0.26
27 | AAATATATATACACATATATATATATATATATATAT [CACACA_negctrl_site1742] | 9.25 ± 0.68
28 | CTTTCCTATTTGACACGTACGAAATTTTACATAAAA [XGTACX_site6689] | 8.41 ± 0.29
29 | AAAATAAAAAATATAACACACAATAAATATTTATAT [CACACA_site6986] | 7.81 ± 0.44
30 | TATGAAATATCGTGCACACACGAATAATATAAGAAT [CACACA_site4842] | 9.85 ± 0.11
31 | TATAGGAATATATGGTGTACCTATAAATCTGACATA [XGTACX_site8111] | 7.62 ± 0.4
32 | TTAAATAAGTAATTATGTACATATAATATTCTTTAT [XGTACX_site5280] | 7.62 ± 0.36
33 | TAGAAAATATAAAAATGTACGTAAATAAAATGTGCA [XGTACX_site3459] | 8.13 ± 0.49
34 | AAAAATAAAAATTGCACACTAAAAAATTACGCACGA [CACACA_site3418] | 10.8 ± 0.37
35 | ATTTATATATTTATACGTACTTATATATTGTTACAT [XGTACX_site6254] | 8.04 ± 0.4
36 | ATCCGAGTGTGAAATACACACATGATAATGTGAATG [CACACA_site919] | 7.48 ± 0.64
37 | AATTATATTACAAACTGTACATATATAATTTGTCCA [XGTACX_site6009] | 7.54 ± 0.45
38 | TCTTAAGGAAAAGAGTGTACAGAAATTTTTATTAAC [XGTACX_site6139] | 7.92 ± 0.49
39 | TATAATGAGGATAATAGTACATATGAATACAAAAAA [XGTACX_site3665] | 8.21 ± 0.5
40 | GCCATAAAAATATATACACACATAAAAAAAAATTAT [CACACA_site1176] | 7.98 ± 0.14
41 | TACACAAGCAGACACACACACATATAGATTTATATA [CACACA_site6715] | 7.78 ± 0.22
42 | TTAATATTGTATTTCACACATAATTTAATATACTCA [CACACA_site5678] | 7.63 ± 0.67
43 | AACCACATACCTATAACACACATATACAATATAGAT [CACACA_site7023] | 8.09 ± 0.4
44 | ACATCATAGAAAAATTGATATATATATATATATATA [CACACA_negctrl_site130] | 9.27 ± 0.44

Row | Sequence | gcPBM binding intensity (ln)
45 | TCCACAAAGCATGTAACACACAACATATAAGACATA [CACACA_site972] | 7.76 ± 0.51
46 | TATTAAAAAGAGGTGACACACACATATAAATCTAAA [CACACA_site9243] | 7.6 ± 0.65
47 | TATATATTTTATTTATGTACGAAAATAAATTAAATT [XGTACX_site3628] | 7.63 ± 0.33
48 | TTAAAAAAATTAATATGTACATATATTTATATATAT [XGTACX_site5317] | 8.13 ± 0.45
49 | AATATTTTAATGCACACACACAAAAAAAAAAAAAAA [CACACA_site7374] | 11.5 ± 0.73
50 | AATCCTTTACGACACACACACAAAAAAAAAAAAAAA [CACACA_site6449] | 8.15 ± 0.41
51 | TGTTGGCAGGTGAATGCATGCATATAAGTCTATCTG [TGCATGCA_site781] | 8.02 ± 1.1
52 | CACCCTTTACACAAGGTGCATACTTTATTATATTTT [GTGCAC_site9778] | 9.305 ± 0.049
53 | TTTTTCTTTCTTTCTTTTTTAATATTACAAATGTAT [XGTACX_negctrl_site267] | 8.06 ± 0.58
54 | TTATTAAAACAAAATGTACACACATATAATTTAATG [CACACA_site8193] | 7.83 ± 0.26
55 | TTCAATGCATGTCCATGTACATATAAAAAAAAATAC [XGTACX_site1597] | 8.29 ± 0.4
56 | AAAGTAGAATATCCCCTACACACCCAAATAATTTAC [CACACA_site1255] | 8.38 ± 0.6
57 | TTTTTGATATTAAAGGGTACATTATTTACAAAAAAA [XGTACX_site5284] | 7.68 ± 0.57
58 | AAAACAAACATTACACGTACAAAACAAGTTATAGAC [XGTACX_site6320] | 8.12 ± 0.45
59 | ATTCTTTTATTTAGTAGTACATTTGTATTTTATTCA [XGTACX_site5790] | 8.06 ± 0.45
60 | GATCCTGGTTCTTGTGGTACTTGTTCATTTGTTATA [XGTACX_site7164] | 7.77 ± 0.79
61 | ATGCTTTTTTATAAAAGTACATAAAGTTTTTACACT [XGTACX_site7307] | 7.99 ± 0.36
62 | CTGCCTTCCATACCCACACACTTCCCATATATTTTA [CACACA_site5491] | 8.35 ± 0.58
63 | TTTTTTATTGTGAAACTGATATTATATTTTTTATAA [GTGCAC_negctrl_site559] | 7.41 ± 0.57
64 | TAAACATTTTTAATTTTGTAAAATTTTAAATAAAAA [XGTACX_negctrl_site612] | 7.49 ± 0.54
65 | TGAATATTTTATGATTGTACATATTATAATAAACAT [XGTACX_site6113] | 7.8 ± 0.55
66 | ACAAACAAAGAAAGAACACACATACACAAGATACCT [CACACA_site7353] | 7.75 ± 0.67

Row | Sequence | gcPBM binding intensity (ln)
67 | TCGAACATTAACATAACACACATATAGATTTATATA [CACACA_site7380] | 7.8 ± 0.25
68 | TATTATATATATAGGTGTACGCATTTGTCCTTTATA [XGTACX_site1385] | 7.79 ± 0.57
69 | AAACTTATGTTTACATGTACAGAACTTTATATTATG [XGTACX_site4843] | 7.58 ± 0.52
70 | TTGTATGCTTCCCGACTACATTATGCCATAAATGTA [TGCATGCA_negctrl_site136] | 7.92 ± 0.49
71 | TTATTCTTTAACTAAAATTATATATATATATTATAC [CACACA_negctrl_site1597] | 7.6 ± 0.52
72 | TTAAGAATATTTTCATGTACTCATTTTTTTTGTTAT [XGTACX_site1814] | 7.79 ± 0.4
73 | AATAAAAATATATCCACACACATATATAAATATGTA [CACACA_site6415] | 7.79 ± 0.2
74 | ATAACTTATTTTTAAAGTACATTATTATATATATAT [XGTACX_site1620] | 8.915 ± 0.007
75 | ATTGTAATAAATTGTAGTACATGTAAGGTTTTATTT [XGTACX_site1005] | 7.88 ± 0.55
76 | ATTACATATGTGAGTTGTACTATAAATATATAATAT [XGTACX_site3718] | 7.88 ± 0.3
77 | TTTATTATCTTATTCACACACATATATATATATATA [CACACA_site2869] | 9.4 ± 0.36
78 | ATATATTTTTACCATACACACATATAACAAATATAT [CACACA_site7706] | 8.24 ± 0.48
79 | AGAAAAAAAAAAAAAAAAAAAAAATTGAATATATAT [TGCATGCA_negctrl_site55] | 7.67 ± 0.81
80 | GAAGAATAAATATGCACACATGCATATATTTTTACA [CACACA_site3459] | 10.3 ± 0.32
81 | TACAATTCGTAATACACACACATATATATATATATT [CACACA_site3751] | 8.02 ± 0.38
82 | TAAAAAAATTTAACATGTACAAATATTGAAAAGGAC [XGTACX_site7608] | 8.61 ± 0.49
83 | ATTAAAAAAGAATATACACACCAAAACTGTTTGTTA [CACACA_site4687] | 7.58 ± 0.37
84 | GTAAGTTGTGCATTCACACACATATATATATATATA [CACACA_site3303] | 9.92 ± 0.18
85 | TTTTGTTTCTATATAAGATGGAAATATAAACTTGTA [CACACA_negctrl_site82] | 7.64 ± 0.47
86 | TTAAGATCCTAAAAAACACACAATTGTGAATAATAA [CACACA_site3872] | 7.63 ± 0.8
87 | TATATATATATATATACATGCATATATATAATATAT [TGCATGCA_site763] | 9.24 ± 0.57
88 | AAATATATATAAATGAGTACTTATGGTAACATATAT [XGTACX_site6362] | 7.79 ± 0.46
